The values that follow come from publication PMC7819943, “Rice protein-binding microarrays: a tool to detect cis-acting elements near promoter regions in rice”.

This is one part of the list.

For the assay, the target named is T1, OsWOX13 (Oryza sativa, UniProt Q5QMM3 1-267).
T1 sequence: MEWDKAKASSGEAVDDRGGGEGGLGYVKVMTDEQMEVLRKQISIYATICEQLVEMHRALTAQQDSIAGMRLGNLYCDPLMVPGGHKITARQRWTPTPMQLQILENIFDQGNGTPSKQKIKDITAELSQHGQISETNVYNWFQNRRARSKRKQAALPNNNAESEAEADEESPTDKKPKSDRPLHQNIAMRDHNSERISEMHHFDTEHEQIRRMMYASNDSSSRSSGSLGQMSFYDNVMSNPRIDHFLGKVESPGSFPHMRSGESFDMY
Kind of assay: protein-binding microarray (RPBM); PBS, 2% BSA, 51.3 ng/ul salmon testes DNA, 50 uM zinc acetate, 200 nM TF, 25 C, 1 h; high values mean tight binding. Conditions: protein: recombinant; tags: N-terminal polyhistidine and DsRed monomer fusion (pET32a); label: CyDye5-dUTP incorporated in the synthesized complementary strand; 3' TTTTT single-stranded linker to array surface; dsDNA, one strand shown. The gist of the method: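 Transcription factors were made in E. coli BL21-CodonPlus as N-terminal fusions to a polyhistidine tag and DsRed, then purified on Ni–NTA. After primer extension with Cy5-dUTP and blocking with 2% BSA, a custom Agilent array was exposed for 1 h at 25 °C to 200 nM protein in PBS, 2% BSA, salmon testes DNA and 50 µM zinc acetate. Washed arrays were scanned on an Axon 4000B, and the binding signal is per-feature fluorescence intensity in arbitrary units.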
For “ATTTTCTCAATTTATCTCACTCATATAAACTCCAAATTGGCGGAGTCACCTAGTGCAG”, the binding signal was 6170 fluorescence intensity (a.u.). On to “GATAATTACGTATATGGGTCACTCGCCTTACTCCACGTCGCGGAGTCACCTAGTGCAG”, for which the binding signal is 40500 fluorescence intensity (a.u.). Under “ACCAAATCAATCTAATCAATACCTATCGAAAGTTTGCTCACGGAGTCACCTAGTGCAG” stands 21300 fluorescence intensity (a.u.); under “TTGATTACTTGCATCTTCAGCTGACGCAACATATGCTACACGGAGTCACCTAGTGCAG”, 4140 fluorescence intensity (a.u.).

Take “ATTAATGAACTGTGACATTTCCTTAATTTCATTTTGCTCTCGGAGTCACCTAGTGCAG”: the binding signal is 23800 fluorescence intensity (a.u.).

Take “GATCAATTAATATGGAATTTAAAAGTTCAATTAATATGGACGGAGTCACCTAGTGCAG”: the binding signal is 8910 fluorescence intensity (a.u.). Then “CCTAATTGCTACATGATTTGACAGTATAATACTACCGTAACGGAGTCACCTAGTGCAG”, with 31400 fluorescence intensity (a.u.); and “GTGAGTGACGAAATTAGAAATTATTAAAGCATGAGGCTAACGGAGTCACCTAGTGCAG”, with 13300 fluorescence intensity (a.u.). As to “AAGTTGATTACTTAAACTGATTGACAGGGAGGCGGTTGAACGGAGTCACCTAGTGCAG”, the binding signal is 56600 fluorescence intensity (a.u.). As to “GTTGGTTGATTACATTTTGAATGCGTGGTTGAGATCGAGTCGGAGTCACCTAGTGCAG”, the binding signal is 25900 fluorescence intensity (a.u.). As to “AAGGCAAATCATATGATAGAATCAGTGGCTAACACTGTGCCGGAGTCACCTAGTGCAG”, the binding signal is 6580 fluorescence intensity (a.u.). As to “GTGATTTCTGATTCTGTGATATATGAATTGATTCATGTGACGGAGTCACCTAGTGCAG”, the binding signal is 5190 fluorescence intensity (a.u.). Under “GTTCGTTTTAATTATCGTCTGTTAGAAATAATAGTAATGGCGGAGTCACCTAGTGCAG” stands 6830 fluorescence intensity (a.u.). Turning to “CTAATTGCACAGATTGCAACTAATTTGCGAGACAAATTTTCGGAGTCACCTAGTGCAG”, the binding signal is 23900 fluorescence intensity (a.u.). For the sequence “GTTATGTAATTAAAACGTTGTTTTCTTCTAATATATTGTCCGGAGTCACCTAGTGCAG”, the binding signal is 7150 fluorescence intensity (a.u.). With “TTGATTGTATTAACACTTGTGGCAATGACCACGTGGGACCCGGAGTCACCTAGTGCAG”, the binding signal is 16500 fluorescence intensity (a.u.).

With “ATATATAATTACACTAGGATTATAGTGTATTTATATATGTCGGAGTCACCTAGTGCAG”, the binding signal is 16200 fluorescence intensity (a.u.).

In the case of “AATATGATTAAATGTTGGACACATAGATGCACTTAGAATGCGGAGTCACCTAGTGCAG”, the binding signal was 16100 fluorescence intensity (a.u.). On to “TCGAGATTATGAACGTTTGGTTGACTGCTAATGGCTAACGCGGAGTCACCTAGTGCAG”, for which the binding signal is 6760 fluorescence intensity (a.u.). Then “GAGTATAATTGAAGGAACAAACTGGGGAAGCTGGCTAACCCGGAGTCACCTAGTGCAG”, with 31300 fluorescence intensity (a.u.); and “AAACCATTGCAAATTAACTCTCCAAATGGTTTCAGAGACGCGGAGTCACCTAGTGCAG”, with 4040 fluorescence intensity (a.u.).

In the case of “TTAATTACTGGTTTTGAATAGGGAATGGGTCCGAACGATGCGGAGTCACCTAGTGCAG”, the binding signal was 4190 fluorescence intensity (a.u.).

In the case of “TGTGGTTGGATTGATTCTAATATATACCAAATCAATATAACGGAGTCACCTAGTGCAG”, the binding signal is 12400 fluorescence intensity (a.u.). Consider “TAAACTCCTAATTACACACACTGAAATTCGTATAGAAGATCGGAGTCACCTAGTGCAG”, for which the binding signal was 6630 fluorescence intensity (a.u.). Under “ACGAATAGTAATTTGTGAATAAAACTTTTATATACGTGTTCGGAGTCACCTAGTGCAG” stands 4930 fluorescence intensity (a.u.); under “GATGCTAATTAAGTGCATAGTGCCGGATTATGTAAGGAAACGGAGTCACCTAGTGCAG”, 5820 fluorescence intensity (a.u.); under “AACCCTTGCCAGGTGATTGGAAGTAACTTACTGAATTATCCGGAGTCACCTAGTGCAG”, 6220 fluorescence intensity (a.u.). As to “TCTTAAACATCAATTCTAACATGGAAAATACGCATTTTACCGGAGTCACCTAGTGCAG”, the binding signal is 3180 fluorescence intensity (a.u.). For “CCTTTCCTCCGCTAATTAATTCGCCCAACTAAACTACTCACGGAGTCACCTAGTGCAG”, the binding signal is 11700 fluorescence intensity (a.u.).

On to “ACTATGATTATTACAAGTAACATATAAATTATTAGTCAGGCGGAGTCACCTAGTGCAG”, for which the binding signal was 37700 fluorescence intensity (a.u.). Under “GCAAATAATTAATTATTCCCTATGACTAATGGGTGTTCGACGGAGTCACCTAGTGCAG” stands 47800 fluorescence intensity (a.u.); under “AAAATTGATTTTGTGATAATAAACGTGTGCTCGTTTCTTCCGGAGTCACCTAGTGCAG”, 39500 fluorescence intensity (a.u.). On to “TTATTTAATTATTGTATATATATTTAGTGTTCAACTCATTCGGAGTCACCTAGTGCAG”, for which the binding signal is 5310 fluorescence intensity (a.u.). Regarding “CCTTGACAGTATCACTATCCTAGGCATTTGCTTCATCATTCGGAGTCACCTAGTGCAG”, the binding signal is 8720 fluorescence intensity (a.u.). As for “TAGGAAAATACCATCAATCAAGAAAACAAAATTAACTTTGCGGAGTCACCTAGTGCAG”, the binding signal was 8520 fluorescence intensity (a.u.). “GATTGATGGGCTACCTTGGAAATAAGGTAATTCAGAGTTTCGGAGTCACCTAGTGCAG”: the binding signal was 5190 fluorescence intensity (a.u.). Under “CGAATAGAAATGATTTGAGGGAGCAAACACATTCTCTTTCCGGAGTCACCTAGTGCAG” stands 3780 fluorescence intensity (a.u.); under “GAAGAAGAAGAACCTTGATTGAAATCCCTAACCCCAACCACGGAGTCACCTAGTGCAG”, 23600 fluorescence intensity (a.u.).

For “GTTAACTTTTAAACATATATTATAACTATCAGTTTTGTTACGGAGTCACCTAGTGCAG”, the binding signal was 3620 fluorescence intensity (a.u.).

“GGTAGATTGTACAGCGGTAAATTGGGTCGCAGGCGAACACCGGAGTCACCTAGTGCAG”: the binding signal was 16000 fluorescence intensity (a.u.). For “TGGTGGTGGCTGGCGGCGGGGAGGATGAGAACGAGAGAAGCGGAGTCACCTAGTGCAG”, the binding signal was 3920 fluorescence intensity (a.u.).

For the sequence “CGATAGATTAGATCGAAGTAGAACAGCGGAGAAGGAGAGTCGGAGTCACCTAGTGCAG”, the binding signal is 9420 fluorescence intensity (a.u.).
